# Results from PubChem BioAssay AID886 (National Center for Advancing Translational Sciences (NCATS), 2007).
# Several values for one entry are separate records, joined by “and”; a condition that tells them apart may be missing. Equal values may be shown once. Hit rate of the full screen: of about 73,000 compounds, about 2,500 (3.4%) were called active. This list was built around the results that the source calls inconclusive (neither active nor inactive); the mix of calls is not that of the screen. Calls come from the whole dose curve; as a rule, active = well fitted inhibition curve with a large enough effect; inconclusive = small, poorly fitted or top-dose-only effect; inactive = no such curve, though single readings can be large or run the other way. Where the call is inconclusive, the potency comes from a doubtful curve fit.
# Biological target: 3-hydroxyacyl-CoA dehydrogenase type-2 (Homo sapiens) (UniProt Q99714)
# Experiment: qHTS Assay for Inhibitors of HADH2 (Hydroxyacyl-Coenzyme A Dehydrogenase, Type II); note: nearly all actives have a fitted effect of over 60% in size
# Settings: recombinant HADH2, NADH fluorescence, beta-hydroxybutyryl-CoA; activity change, negative = inhibition: at 57.1 µM (top of the series)
# Method in brief: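 20 nM HADH2 + cpd, 15 min RT; add 1 mM NAD+/90 uM beta-hydroxybutyryl-CoA; kinetic fluorescence 360/450 nm, 4 min. Tris-HCl pH 9.0, 0.01% Tween-20.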
# % is set by controls: 0 for no effect and ±100 for the full control effect; potency is the fitted concentration of half-maximal effect; tags give direction and shape of the fitted curve.
# Chain of UniProt Q99714 (Q99714 whole entry, looked up): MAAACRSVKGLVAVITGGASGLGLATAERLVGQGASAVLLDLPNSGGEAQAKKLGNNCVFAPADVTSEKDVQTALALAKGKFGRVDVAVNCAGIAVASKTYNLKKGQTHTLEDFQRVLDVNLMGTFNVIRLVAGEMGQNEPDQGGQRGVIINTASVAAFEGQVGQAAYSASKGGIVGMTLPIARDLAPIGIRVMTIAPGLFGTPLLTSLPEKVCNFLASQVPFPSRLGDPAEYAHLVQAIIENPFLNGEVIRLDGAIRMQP
# Chain of UniProt Q99714 (Q99714 whole entry, looked up): as above
Structure (SMILES),"activity change, negative = inhibition",Potency
O=C(Nc1ccc(F)cc1)N1CCN(c2nc3ccccc3s2)CC1,inactive: 7.46%,–
O=C1NC(c2ccncc2)Nc2sc3c(c21)CCCC3 (stereo not drawn),–,"inconclusive: 3.98 µM [inhibitor, full curve]"
CCOc1cc(C2NC(=O)NC(C)=C2C(=O)OC(C)CC)cc(Br)c1O (stereo not drawn),–,"inconclusive: 39.8 µM [inhibitor, single point]"
COc1ccccc1-c1ccc2ncnc(NCc3cccnc3)c2c1,–,"inconclusive: 31.6 µM [inhibitor, single point]"
Cc1cccc(OCc2nnc(SCC(=O)N3CCCC3)n2C)c1,inactive: -2.43%,–
CCC(Sc1ncccc1C(=O)OCCN1CCCC1=O)C(=O)NCc1ccco1 (stereo not drawn),–,"inconclusive: 10 µM [inhibitor, partial curve]"
O=C(c1ccco1)N1CCN(C(=O)c2cc3c(s2)-c2ccccc2OC3)CC1,–,active: 31.6 µM
O=C(CN1C(=O)CCS(=O)(=O)c2ccccc21)Nc1cccc(F)c1,inactive: 3.07%,–
c1ccc(CN2CCC3(CC2)SSC2(CCN(Cc4ccccc4)CC2)SS3)cc1,–,"inconclusive: 3.98 µM [inhibitor, single point]"
CCCc1cc(=O)[nH]c(Nc2cc(OC)ccc2OC)n1,–,"inconclusive: 25.1 µM [inhibitor, single point]"
CN1CCC(=C2c3ccccc3C=Cc3ccccc32)CC1,–,"inconclusive: 20 µM [inhibitor, single point]"
O=C(NCCc1ccc(Cl)cc1)c1cnc2n(c1=O)CCS2,–,"inconclusive: 31.6 µM [inhibitor, single point]"
COc1cccc(CNC(=O)Nc2cccs2)c1,–,"inconclusive: 25.1 µM [inhibitor, partial curve]"
Cc1ccc(O)c(Sc2cc(C)ccc2O)c1,–,"inconclusive: 25.1 µM [inhibitor, single point]"
CCOC(=O)C1=C(C)OC(N)=C(C#N)C1c1ccsc1 (stereo not drawn),–,"inconclusive: 31.6 µM [inhibitor, single point]"
CCCOC(=O)c1c(N)sc2c1CCC2,inactive: -18.2%,–
COc1cc(=O)n(C)c2cc(N(C)C)ccc12,–,active: 25.1 µM
Oc1ccccc1C(Sc1nc2ccccc2s1)Sc1nc2ccccc2s1,–,active: 2.51 µM
CCn1ncc(Br)c1C(=O)Nc1cc(C(=O)OC)ccc1C(=O)OC,–,"inconclusive: 7.94 µM [inhibitor, single point]"
CCOC(=O)N1CCN(c2c(NCCN3CCCCC3CC)c(=O)c2=O)CC1 (stereo not drawn),inactive: 13%,–
CCN1CCN(Cc2ccc(NC(=O)Nc3ccccc3OC)cc2)CC1,inactive: 14.9%,–
CCn1c(=O)c2[nH]c(-c3ccccc3)nc2n(CC)c1=O,–,"inconclusive: 31.6 µM [inhibitor, single point]"
Cc1cc(-c2ccc(N=Nc3ccc4c(S(=O)(=O)O)cc(S(=O)(=O)O)c(N)c4c3O)c(C)c2)ccc1N=Nc1ccc2c(S(=O)(=O)O)cc(S(=O)(=O)O)c(N)c2c1O,–,active: 10 µM
CCOC(=O)Cn1c(=NC(=O)CSC(C)=O)sc2cc(OC)ccc21,–,"inconclusive: 39.8 µM [inhibitor, single point]"
COc1ccc(-c2c(=O)n(OCc3ccccn3)c3ccccc3[n+]2[O-])cc1OC,–,"inconclusive: 25.1 µM [inhibitor, single point]"

Structure (SMILES),"activity change, negative = inhibition",Potency
C=CCn1c(NC(=O)c2ccccc2Cl)c(C#N)c2nc3ccccc3nc21,–,"inconclusive: 7.94 µM [inhibitor, full curve]"
COc1ccccc1-c1nc(NCc2cnc(C)cn2)c2ccccc2n1,–,"inconclusive: 15.8 µM [inhibitor, partial curve]"
CCOC(=O)C1CCCN(Cc2nc(N)nc(Nc3ccccc3OC)n2)C1 (stereo not drawn),–,"inconclusive: 6.31 µM [inhibitor, single point]"
CCN(CC)S(=O)(=O)c1ccc(C2CNC(=O)C2)cc1 (stereo not drawn),inactive: -4.11%,–
Oc1ccc(/C=C\c2cc(O)cc(O)c2)cc1,–,active: 12.6 µM and active: 10 µM
Cc1cc(O)ccc1Nc1nc2ccccc2nc1Nc1ccc(O)cc1C,–,"inconclusive: 12.6 µM [inhibitor, partial curve]"
O=C(NC1CCN(C(=O)NCc2ccccc2)CC1)c1ccco1,inactive: -7.21%,–
CCOC(=O)c1cc2c(=O)n3ccccc3nc2n(CCOC)c1=NC(=O)C(C)(C)C,–,"inconclusive: 39.8 µM [inhibitor, single point]"
Cc1ccc2cccc(S(=O)(=O)NC3CCS(=O)(=O)C3)c2n1 (stereo not drawn),–,"inconclusive: 25.1 µM [inhibitor, single point]"
CCOC(=O)c1ccccc1NC(=O)c1ccccc1NS(C)(=O)=O,–,"inconclusive: 6.31 µM [inhibitor, single point]"
Cc1nc2ccc(C(=O)O)cc2c2c1CC(C)S2 (stereo not drawn),–,active: 3.16 µM
O=C(CN1CCN(c2ccccc2F)CC1)Nc1ccccc1F,–,"inconclusive: 39.8 µM [inhibitor, single point]"
CCCCCCCCCCCCCCCC(=O)O[C@H](CC(=O)O)C[N+](C)(C)C,–,"inconclusive: 3.98 µM [inhibitor, single point]"
CSc1nsc(SC)c1C(=O)NCCNS(=O)(=O)c1ccc(C)cc1,–,"inconclusive: 39.8 µM [inhibitor, single point]"
COc1ccc(C2CC(=O)N3CN(c4ccc(C)c(Cl)c4)CSC3=C2C#N)cc1 (stereo not drawn),–,active: 1.58 µM
Cc1sc(NC(=O)c2oc3ccccc3c2C)c(C#N)c1C,–,"inconclusive: 39.8 µM [inhibitor, single point]"
Cn1c(CC(=O)Nc2ccccc2)nnc1SCC(=O)c1ccccc1,–,"inconclusive: 25.1 µM [inhibitor, single point]"
COC(=O)c1c(-c2ccco2)csc1NC(=O)C1CC=CCC1C(=O)O (stereo not drawn),–,"inconclusive: 20 µM [inhibitor, single point]"
Clc1ccc(Cc2nn3c(-c4ccncc4)nnc3s2)cc1,–,"inconclusive: 15.8 µM [inhibitor, partial curve]"
N#Cc1c(-c2ccccc2)cc(C2CC2)nc1N,–,"inconclusive: 39.8 µM [inhibitor, single point]"
O=C(c1cc(C(F)(F)F)cc(C(F)(F)F)c1)N1CCC2(CC1)CN(Cc1ccncc1)C2,inactive: 4.15%,–
COc1ccccc1CN(Cc1cc2cc(C)ccc2[nH]c1=O)Cc1nnnn1Cc1ccco1,–,"inconclusive: 39.8 µM [inhibitor, single point]"
CCC(C)NC(=O)C1(C)CCC(=O)N1Cc1ccccc1OC (stereo not drawn),inactive: 0.789%,–
O=c1ccc2cc3c([nH]c4ccc(Br)cc43)oc-2c1O,–,active: 10 µM
COc1ccc(-n2cnc3c(sc4nccc(N(C)C)c43)c2=O)cc1,–,"inconclusive: 39.8 µM [inhibitor, single point]"

Structure (SMILES),"activity change, negative = inhibition",Potency
Cc1cc(=O)[nH]c(SCC(=O)C23CC4CC(CC(C4)C2)C3)c1C#N,–,"inconclusive: 2 µM [inhibitor, full curve]"
Cc1c(O)c(=O)c2ccccc2n1C,–,"inconclusive: 6.31 µM [inhibitor, single point]"
CO/N=C\C[C@@H]1C=C[C@H](OC(C)=O)[C@H](COC(C)=O)O1,inactive: -5.78% [at 11.4 µM],–
Cc1ccc(C2C3CSCC=C3C(C#N)=C(N)C2(C#N)C#N)cc1 (stereo not drawn),–,"inconclusive: 25.1 µM [inhibitor, partial curve]"
Cc1ccn2cc(CCNC(=O)CC(C)(C)C)nc2c1,–,"inconclusive: 39.8 µM [inhibitor, single point]"
CN(C)C(=O)CSc1nnc(-c2cccnc2)n1-c1ccccc1,inactive: 0.127%,–
O=C(NCc1ccco1)c1cnn2c(C(F)(F)F)cc(-c3cccs3)nc12,inactive: 26.8%,–
CC1CC(C)CN(CC(=O)N2CCc3[nH]c4ccccc4c3C2)C1 (stereo not drawn),inactive: 2.9%,–
O=C(NCCN1CCOCC1)NC1(C(F)(F)F)Oc2ccc(Cl)cc2O1 (stereo not drawn),–,active: 0.794 µM
O=C(CN1CCN(c2ccccc2F)CC1)c1ccc2cc[nH]c2c1,–,"inconclusive: 25.1 µM [inhibitor, single point]"
CCCn1nc(-c2nnc(-c3ccc(C)c(C)c3)o2)c2ccccc2c1=O,inactive: -0.134%,–
CC(C)C[C@@H](CC(=O)N[C@H](CC(=O)N[C@@H]1CCNC[C@H]1C(=O)N[C@H](CC(=O)N[C@@H](CCC(=O)O)CC(=O)O)CC(C)C)C(C)C)NC(=O)[C@@H]1CNCC[C@H]1N,inactive: -12.7%,–
COc1cc(OC)cc(C2C(C#N)=C(N)Oc3n[nH]c(-c4cccnc4)c32)c1 (stereo not drawn),–,"inconclusive: 31.6 µM [inhibitor, single point]"
O=C1NC(Nc2nccs2)(C(F)(F)F)C(=O)N1CCc1ccccc1 (stereo not drawn),–,"inconclusive: 39.8 µM [inhibitor, single point]"
CCOC(=O)CSC1=NC(=O)CS1,–,active: 12.6 µM
N[C@@H](CC(=O)O)C(=O)O,inactive: -4.59%,–
COc1ccc(S(=O)(=O)N(C(C)=O)c2ccc3oc(=O)sc3c2)cc1,–,"inconclusive: 20 µM [inhibitor, partial curve]"
CC(C)c1ccc(NC(=O)N2CCC(c3nc4ccccc4o3)CC2)cc1,inactive: 3.33%,–
CCCn1c(C)nc2c(NC(C)CN(C)C)nc(C)nc21 (stereo not drawn),inactive: -2.36%,–
Cc1nn(-c2ccccc2)c2sc(C(=O)OC3CCOC3=O)cc12 (stereo not drawn),–,"inconclusive: 31.6 µM [inhibitor, single point]"
CCOC(=O)N1CCN(c2ccc(C(=O)CC)cc2F)CC1,inactive: -9.81%,–
CC(=O)OC[C@H]1O[C@@H](O/N=C(\C)CCN2CCc3nc(-c4ccccc4)c(-c4ccccc4)cc3C2)[C@H](OC(C)=O)[C@@H](OC(C)=O)[C@H]1OC(C)=O,inactive: 5.76% [at 11.4 µM],–
NC(=O)c1sc2nccc(Nc3ccccc3)c2c1N,–,"inconclusive: 10 µM [inhibitor, single point]"
